Laboratory results reported in PubChem BioAssay AID485344 (National Center for Advancing Translational Sciences (NCATS), 2010).
“And” between values parts separate entries of the source, which are not always exact repeats. Equal entries are not always repeated. Hit rate of the full screen: of about 340,000 compounds, about 6,900 (2%) were called active. No stated cut-off is given here; in the data, active means inhibition above about 30%; inactive means below that, where a call was filed. Only a part is listed here, and it is no random draw. The source gives no active or inactive call for entries shown without one.

Target: D(2) dopamine receptor (Homo sapiens) (UniProt P14416)
Assay: HTS Assay for Allosteric Antagonists of the Human D2 Dopamine Receptor: Primary Screen for Antagonists; further: 0% is about no effect
Conditions: HEK293 TREx D2 cells, calcium flux, dopamine EC80; at 10 µM; stronger effect = higher value
In short: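 Read-out: kinetic calcium fluorescence (1 cycle/s) in inducible HEK293 T-REx D2 cells after an EC80 dopamine addition that followed 180 s compound preincubation. Loss of the dopamine response indicates antagonism.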

Sequence of UniProt P14416 (P14416 whole entry, looked up): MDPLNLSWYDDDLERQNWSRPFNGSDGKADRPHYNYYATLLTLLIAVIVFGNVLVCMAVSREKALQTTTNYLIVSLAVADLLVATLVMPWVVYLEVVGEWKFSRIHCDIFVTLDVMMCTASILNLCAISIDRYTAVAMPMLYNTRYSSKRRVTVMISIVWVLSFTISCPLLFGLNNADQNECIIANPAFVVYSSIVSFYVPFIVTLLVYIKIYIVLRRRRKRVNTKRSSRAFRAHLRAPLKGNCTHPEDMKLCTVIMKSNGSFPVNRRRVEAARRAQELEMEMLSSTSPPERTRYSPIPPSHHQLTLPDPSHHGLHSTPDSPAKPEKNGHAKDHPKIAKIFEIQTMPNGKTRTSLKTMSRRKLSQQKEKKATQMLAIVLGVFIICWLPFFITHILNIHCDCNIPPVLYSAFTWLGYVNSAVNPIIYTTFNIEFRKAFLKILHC

Row | Structure (SMILES) | inhibition
1 | CN1CCN(c2ccccc2NC(=O)COc2ccc(Cl)cc2)CC1 | active: 30.3%
2 | Cc1ccc(Cn2c(CNS(=O)(=O)c3ccc(F)c(Cl)c3)nc3cccnc32)cc1 | -19.1%
3 | C=CCNCCOc1ccccc1-c1ccccc1 | active: 86.9%
4 | COc1ccc(-n2ncc(C(=O)NCCc3ccsc3)c2C2CCN(C(=O)OC(C)(C)C)CC2)cc1 | -6.84%
5 | Cc1noc(-c2ccc(N3CCCCC3)c([N+](=O)[O-])c2)n1 | -11.9%
6 | Cc1cc(NC(=O)c2cccc(Cl)c2)ccc1-c1cc2ccccc2oc1=O | -1.66%
7 | C=CCN1C(=O)CN=C1Nc1ccc(F)cc1 | active: 54.3%
8 | COc1ccccc1C1Nc2ccccc2-n2c(-c3ccccc3)c3c(=O)n(C)c(=O)n(C)c3c21 (stereo not drawn) | 7%
9 | Cc1ccccc1CCNC(=O)c1ccc2c(c1)nc1n2CCC(C)C1 (stereo not drawn) | -0.0336%
10 | CC(=O)Nc1ccc2nc3c(=O)[nH]c(=O)[nH]c3nc2c1 | 20.1%
11 | Cc1ccc(NC(=O)CSc2ccc(-c3cccs3)nn2)cc1Cl | 21.6%
12 | COCC(=O)NCc1nc2cccnc2n1Cc1ccc(F)cc1 | -1.79%
13 | COc1ccc(Nc2cc(C(=O)NCCCN3CCN(c4ccc(OC)cc4)CC3)c3ccccc3n2)cc1 | 6.57%
14 | Cc1ccc(NC(=S)NC2CC3CCCC(C2)N3Cc2cccs2)cc1 (stereo not drawn) | active: 71.9%
15 | O=C(CCn1cnnn1)Nc1ccc(F)cc1 | 18.1% and active: 31.9%
16 | Cc1ccc(S(=O)(=O)N(C)C)cc1NC(=S)NC(C)CCC(C)C (stereo not drawn) | active: 77.4%
17 | COc1cccc(S(=O)(=O)NCc2ccc(C(=O)N3CCN(c4ccccc4)CC3)cc2)c1 | active: 56.4%
18 | Cc1oc(C)c2c(=O)cc(-c3ccc4c(c3)OCO4)cc(OC(=O)c3cccc(Br)c3)c12 | -2.28%
19 | O=C(NCc1ccc(Cl)cc1)C(=O)NCC(c1cccs1)S(=O)(=O)c1cccs1 (stereo not drawn) | 10.5%
20 | CCOC(=O)c1ccccc1NC(=O)Cn1c(=O)n(-c2cccc(C)c2)c(=O)c2c1c1cc(C)ccc1n2C | 0.104%
21 | COc1ccc2c(C)cc(SCC(=O)Nc3nsc(-c4ccccc4C)n3)nc2c1 | 6.1%

Row | Structure (SMILES) | inhibition
22 | COc1cccc(N2CCN(S(=O)(=O)c3ccc(-n4cnnn4)cc3)CC2)c1 | -16.9%
23 | CCOc1ccc(Cn2c(CNS(=O)(=O)c3ccc(Cl)s3)nc3cccnc32)cc1 | 14.1%
24 | COc1cc(C2C(C(=O)Nc3ccccc3C)=C(C)Nc3ncnn32)ccc1OCC(N)=O (stereo not drawn) | 9.46%
25 | O=C(NCC(c1ccc2c(c1)OCO2)N1CCOCC1)c1cccc(Cl)c1 (stereo not drawn) | -4.82%
26 | O=C(Cn1c(=O)nc(-c2ccccc2)c2ccccc21)NCc1ccc(Cl)cc1 | 8.06%
27 | CCc1ccc(NC(=O)CCn2nc(C)c(S(=O)(=O)N3CCCCC3)c2C)cc1 | 1.51%
28 | c1ccc(-c2ncnc3nc4n(c23)CCC4)cc1 | active: 33.7%
29 | Cc1cc(C)cc(NC(=O)C(=O)NCC(c2cccnc2)N2CCc3ccccc3C2)c1 (stereo not drawn) | 21.7%
30 | CC(NCC(O)COc1ccccc1)C1COc2ccccc2O1 (stereo not drawn) | active: 64.1%
31 | CCCCNC(=O)C1CCC(Cn2c(=O)c3sccc3n(CC(=O)N3CCCC3)c2=O)CC1 (stereo not drawn) | -6.75%
32 | O=C(Nc1cc(C(F)(F)F)ccc1Cl)c1nc2ccccc2nc1N1CCCCC1 | -5.9%
33 | COC(=O)c1cccnc1-n1c(=O)c2cccnc2n(CC(=O)Nc2ccccc2F)c1=O | -2.71%
34 | O=C(CSc1nncn2c1cc1sccc12)Nc1ccc(Br)cc1F | 9.6%
35 | CCOC(=O)c1c(C)oc2nc(C)nc(NCc3ccc(OC)cc3OC)c12 | -23.3%
36 | CCc1ccccc1NC(=O)c1sc2nc3c(cc2c1N)CN(Cc1ccccc1)CC3 | -1.24%
37 | O=C(Nc1nc2n(n1)C(c1ccc(F)cc1)C=C(c1ccccc1)N2)c1ccc(Cl)cc1 (stereo not drawn) | 5.63%
38 | Cc1ccc(NC(=O)C(Cc2ccccc2)NS(=O)(=O)c2ccc3c(c2)oc(=O)n3C)cc1F (stereo not drawn) | -7.18%
39 | COc1ccc2c(c1)CCc1c-2n[nH]c1C(=O)O | active: 31.4%
40 | Cc1ccc(NC(=O)c2cc3cc(C)ccc3n2C)cc1 | -4.4%
41 | NC(=O)CSc1oc(-c2ccco2)nc1S(=O)(=O)c1ccc(Cl)cc1 | 0.412%
42 | OCCN1CCN(CC/C=C2/c3ccccc3Sc3ccc(C(F)(F)F)cc32)CC1 | active: 82.9%

Row | Structure (SMILES) | inhibition
43 | CCCc1cnc2c(c1SCC(=O)N1CCC(C)CC1)c(=O)n(C)c(=O)n2C | -2.52%
44 | Cc1nn(Cc2ccccc2Cl)c(C)c1NC(=O)c1cc(C(C)C)on1 | -16%
45 | CCC1CCCCN1C(=O)Cn1c(=O)oc2cc(S(=O)(=O)N3CCCCC3)ccc21 (stereo not drawn) | 6.35%
46 | CC(C)[C@H](CO)Nc1nc(Nc2ccc(Cl)c(C(=O)O)c2)c2ncn(C(C)C)c2n1 | active: 38.8%
47 | COc1ccc(F)cc1C(=O)C1CCCN(Cc2cn(C)c3ccccc23)C1 (stereo not drawn) | active: 78.1%
48 | CCCN1C(=O)c2[nH]nc(-c3ccccc3O)c2C1c1ccc(OCc2ccccc2)c(OC)c1 (stereo not drawn) | 6.59%
49 | COC(=O)Cn1nc(C)c2c(C)n(-c3ccccc3)nc2c1=O | -3.57%
50 | COc1cccc2c1cc1c(=O)n(CC(=O)NC3CCCCC3)nc(C)n12 | -9.17%
51 | COc1cc(C(=O)N2CCN(c3ccc(Nc4ccc(C)cc4)nn3)CC2)cc(OC)c1OC | -21.9%
52 | Cc1ccc(C(=O)Nc2cccc(OCc3cc(=O)n4c5c(sc4n3)CCCC5)c2)cc1 | 7.82%
53 | CCCc1cc(=O)oc2c3c(ccc12)OCN(Cc1ccc(OC)cc1)C3 | 11.9%
54 | CCn1c(C(=O)NCc2ccccc2C)cc2oc3ccccc3c21 | -4.69%
55 | COC(=O)c1ccccc1NC(=O)c1ncoc1-c1ccco1 | 6.64%
56 | Cc1ccccc1OCCSc1nc2ccc(NC(=O)c3ccccc3)cc2s1 | -2.07%
57 | CNC(=O)C1CCC(Cn2c(=O)c3sccc3n(Cc3ccc(F)cc3)c2=O)CC1 (stereo not drawn) | 6.76%
58 | CC(=O)N1CCCc2cc(S(=O)(=O)N3CCC(C(=O)NC4CCC(C)CC4)CC3)ccc21 (stereo not drawn) | 14.2%
59 | CCOc1ccc(C2/C(=C(/O)c3ccc(Cl)cc3)C(=O)C(=O)N2CCCN(C)C)cc1OC (stereo not drawn) | active: 45.2%
60 | CC1(C(=O)Nc2cccc(Br)c2)Cc2ccccc2C(=O)O1 (stereo not drawn) | -8.74%
61 | CCc1ccc(NC(=O)CSc2nccn2-c2ccc(OC)cc2)cc1 | 11.2%
62 | COCCCNC(=O)CCC(=O)N1Cc2cccc(OC)c2Oc2ncccc21 | 6.52%
63 | COc1cc2c(cc1OC)C(COc1ccc3c(C)cc(=O)oc3c1)N(C(=O)c1cccc(C)c1)CC2 (stereo not drawn) | 9.9%
